# PubChem BioAssay (NCI)
# Where “and” joins values, the source holds several entries; their conditions need not be identical. Identical values can stand only once.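 Briefly, cells in 96-well plates were exposed to five compound concentrations for 48 h, and endpoints were estimated by linear interpolation. GI50 is the concentration that inhibits growth by half. TGI: total growth inhibition.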
# Test system: NCI-H322M lung
# Test: NCI-60 cell line screen, 48 h
Structure (SMILES),TGI,GI50 [µM]
COC(=O)C1=C(c2cc(OC)c(OC)c(OC)c2)OC(c2ccc(OC)c(OC)c2)C1 (centres undefined),> 100 µM,–
COc1ccc(-c2cc(-c3ccc(Nc4ccnc5cc(Cl)ccc45)cc3)[nH]c(=O)c2C#N)c2ccccc12,> 91.2 µM,–
CC(=O)C1C(=O)C(=O)N(c2ccccc2C(C)C)C1=O (centres undefined),> 100 µM,–
NC(=S)N/N=C/c1ncccc1N,> 100 µM,–
CSC1=N/C(=C\c2ccco2)C(=O)N1CN1CCOCC1,> 100 µM,–
O=[N+]([O-])c1cccc([As]=[As]c2cccc([N+](=O)[O-])c2)c1 (centres undefined),0.338 µM,0.186
O=CN/C=C/c1ccc(O)c(O)c1,> 100 µM,–
O=C1c2ccccc2-c2c1c1ccccc1c(=O)n2CCN1CCOCC1,> 100 µM,> 100
CCOC(=O)c1cc2c(C(=O)c3ccc([N+](=O)[O-])cc3)c(C(C)=O)ccc2[nH]1,> 100 µM,–
O=C(c1ccccc1)c1cccc(C(=O)c2ccccc2)c1,> 100 µM,–
O=c1c2cc(I)ccc2nc(-c2cccs2)n1-c1ccc(O)cc1,22.5 µM,–
COc1ccc(/C=C\c2cc(OC)c(OC)c(OC)c2)cc1OC,40.4 µM and > 100 µM,–
COc1ccc2c(c1)C(=O)c1c-2c(N(C)C)nc2ccccc12,> 100 µM,> 100
Cc1cc(N2CCCC2)nc(N(CCNc2ccnc3cc(Cl)ccc23)Cc2ccco2)n1,> 100 µM,3.16
CC(=O)Oc1c2oc3ccc(Cl)cc3c(=O)c2c(O)c2ccsc12,> 100 µM,–
CC1(C)C2C=CC1(C)C1(CC2)OCCO1 (centres undefined),> 100 µM,–
CCN(CC)c1ccc2cc(C(=O)Nc3cccc4ccccc34)c(=N)oc2c1,> 100 µM,–
COc1ccc(NC(C)=O)cc1N1C(=O)/C(=C\c2cc(OC)c(OC)c(OC)c2)SC1c1ccccc1 (centres undefined),> 100 µM,–
Nc1ccccc1CC(O)C(=O)O (centres undefined),> 100 µM,–
O=c1ccn(CC2(CO)CC(Cc3ccccc3)C2)c(=O)[nH]1 (centres undefined),> 100 µM,–
COc1ccc(/C=N/N=C(\N)NO)c(OC)c1,> 100 µM,–
COC1OC2COC1(OC)C1OC(C)(C)OC21 (centres undefined),> 100 µM,–
C=C1C(=O)OC2C1C(OC(=O)/C(C)=C/C)CC(O)(CCl)C1C(O)C3OC3(C)C21O (centres undefined),> 50 µM,–
O=C(Nc1nc2ccccc2s1)c1cc([N+](=O)[O-])ccc1Cl,> 100 µM,–
CCOC(=O)c1nc2ccc(C(F)(F)F)cc2nc1Oc1cc(OC)cc(OC)c1,> 100 µM,–

Structure (SMILES),TGI,GI50 [µM]
Cc1cccc(C(C)C)c1NC(=O)CC1C(=O)Nc2ccccc2S1(=O)=O (centres undefined),> 100 µM,–
c1ccc2c(c1)CCc1c-2n(CCN2CCOCC2)c2ccccc12,> 100 µM,–
CC1(O)CC(=O)c2c(cc3ccc(-c4c5c(c(O)c6c(O)cccc46)C(=O)CC(C)(O)C5)c(O)c3c2O)C1 (centres undefined),1.21 µM,–
CC(=O)c1c(C(F)(F)F)n([O-])c2cc(Cl)c(Cl)cc2[n+]1=O,3.07 µM,–
C1=C2/CC[C@H](Sc3ccccc3)[C@H]2C2(CCCCC/1)OCCO2,> 100 µM,–
CC1(C)CC(C)(C)C1=NNC(N)=O,> 100 µM,–
C=C(CO[Si](C)(C)C(C)(C)C)C(C)=O,> 100 µM,–
Cc1c2c(nn1C)CSCc1cc(n(C)n1)CSc1cc(c3ccccc3c1)OCCCc1c(C(=O)O)n(C)c3c-2c(Cl)ccc13,18.2 µM,5.23
COc1ccc(C(=O)c2cc3c(N)c(C(=O)Nc4cccc5ccccc45)sc3nc2C)cc1,> 50 µM,0.3
COC(=O)c1cc2ccc(OC(C)=O)c(OC(C)=O)c2cn1,53.5 µM,–
C#CCSC(C=C=C)P(=O)(OC(C)C)OC(C)C (centres undefined),> 100 µM,–
COC(=O)C1=CC2C(=O)OC1CC2C#N (centres undefined),> 100 µM,–
Cc1c2c(n(CCc3ccc(Cl)cc3)c1C)NC(c1ccccc1)C(C#N)S2(=O)=O (centres undefined),> 100 µM,–
O=C(O)c1ccn(-c2cccc(-n3ccc(C(=O)O)n3)n2)n1,> 100 µM,–
CCc1ccc(NC(=O)COC(=O)c2cc([N+](=O)[O-])ccc2Sc2nnnn2C)cc1,> 100 µM,32.1
C/C=C(/C)C(=O)O[C@H](C[C@@H](C)[C@H]1CC(c2ccoc2)OC1=O)[C@@]1(C)C(=O)CCC2O[C@]21C (some centres undefined),> 100 µM,–
CN(C)c1nc2oc(-c3ccccc3)c(-c3ccccc3)c2c2nnnn12,> 100 µM,–
COC(=O)C(Cc1ccccc1)NP(=O)(O)OCC1OC(n2cc(F)c(=O)[nH]c2=O)CC1O (centres undefined),> 100 µM,–
COc1ccc(OC)c2c1C(=O)C1CC1(Br)C2=O (centres undefined),> 100 µM,–
CCOC(=O)Cc1cc(OC)c(OC)cc1/C(Cl)=C(\C=O)c1ccc(OC)c(OC)c1,55.5 µM,–
COc1ccc(C)cc1Nc1nnc(-c2ccccc2N)s1,> 100 µM,–
O=C(NN1C(=O)CSC12CCCC2)c1[nH]c2ccc(Br)cc2c1-c1ccccc1,> 100 µM,32.5
COc1c(O)cc(O)c2c(=O)cc(-c3ccccc3)oc12,> 100 µM,–
O=C(Nc1ccccc1)N(CCCCN(Cc1ccccc1)C(=O)Nc1ccccc1)Cc1ccccc1,> 100 µM,–
CN(C)c1ccc2c(c1)OC(N)=C(C#N)C2c1ccc2c(c1)CCO2 (centres undefined),> 100 µM,0.517
